Measured values published in PMC4336329 (PLoS ONE, 2015).
The whole screen tested about 310,000 compounds, of which about 14,000 (4.5%) showed an effect of 50% or more. The effect is printed as a negative number. The list shows a part of the results.

These compounds were tested against human ether-à-go-go-related gene (hERG) potassium channel (human, UniProt Q12809) (assay: primary screen, population patch clamp on CHO cells stably expressing hERG).
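Further: peak tail current of the secondary pulse compared with the same well before compound.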

human ether-à-go-go-related gene (hERG) potassium channel, sequence (Q12809 whole entry, looked up): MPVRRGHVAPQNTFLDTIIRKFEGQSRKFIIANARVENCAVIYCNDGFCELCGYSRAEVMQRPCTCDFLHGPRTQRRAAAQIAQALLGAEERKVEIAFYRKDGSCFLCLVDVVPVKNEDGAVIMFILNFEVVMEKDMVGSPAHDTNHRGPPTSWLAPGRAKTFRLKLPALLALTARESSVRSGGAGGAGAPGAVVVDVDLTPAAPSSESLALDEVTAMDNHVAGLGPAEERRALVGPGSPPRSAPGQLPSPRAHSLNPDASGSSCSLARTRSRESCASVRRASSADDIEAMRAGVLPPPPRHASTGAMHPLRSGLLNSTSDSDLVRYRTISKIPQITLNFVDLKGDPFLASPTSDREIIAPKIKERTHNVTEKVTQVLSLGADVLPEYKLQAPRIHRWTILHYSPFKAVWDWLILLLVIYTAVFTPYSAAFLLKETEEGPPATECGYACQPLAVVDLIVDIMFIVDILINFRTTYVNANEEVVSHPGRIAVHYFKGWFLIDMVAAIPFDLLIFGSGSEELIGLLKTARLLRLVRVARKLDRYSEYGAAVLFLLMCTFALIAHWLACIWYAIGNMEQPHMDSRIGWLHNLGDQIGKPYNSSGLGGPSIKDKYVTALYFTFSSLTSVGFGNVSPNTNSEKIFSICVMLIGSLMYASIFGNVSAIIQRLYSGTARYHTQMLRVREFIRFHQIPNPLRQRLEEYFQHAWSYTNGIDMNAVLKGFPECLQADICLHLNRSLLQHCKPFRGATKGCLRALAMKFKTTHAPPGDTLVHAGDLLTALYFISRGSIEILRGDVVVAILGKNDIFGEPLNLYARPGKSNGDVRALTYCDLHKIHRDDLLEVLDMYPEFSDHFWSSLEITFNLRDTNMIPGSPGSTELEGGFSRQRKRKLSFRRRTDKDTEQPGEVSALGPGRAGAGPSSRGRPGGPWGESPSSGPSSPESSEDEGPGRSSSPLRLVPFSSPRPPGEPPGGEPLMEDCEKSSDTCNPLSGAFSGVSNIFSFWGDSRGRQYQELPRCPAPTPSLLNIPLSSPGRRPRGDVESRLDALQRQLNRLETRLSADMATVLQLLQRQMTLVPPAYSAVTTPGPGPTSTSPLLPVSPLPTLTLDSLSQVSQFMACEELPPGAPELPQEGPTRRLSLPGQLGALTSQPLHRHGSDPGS

| Compound | hERG current change (%, negative = inhibition) at 10uM [%] |
| --- | --- |
| Cl.O=C(c1cc(-c2cccs2)nc2ccccc12)N1CCN(c2ccccc2)CC1 | 9.68 |
| CCOC(=O)CC1C(C(=O)OCC)ON2OC(C(=O)OC)C(C(=O)OCC)C12 (centres unmarked) | 6.38 |
| O=C(c1ccc2c3c(cccc13)CC2)C1CCCN(Cc2ccncc2)C1 (centres unmarked) | -51.5 |
| O=C(C/C=N\OCc1ccc([N+](=O)[O-])cc1)Nc1ccc(Cl)cc1 | -13.8 |
| Cc1ccc(C2=NOC(C)(c3nnc(-c4cccc(Cl)c4)o3)C2)cc1 (centres unmarked) | 6.17 |
| Cn1c2ccccc2c(=O)c2c(=O)n(-c3ccccc3)c(-c3ccc(C(C)(C)C)cc3)nc21 | -7.64 |
| O=C(CC(=O)N/N=C/c1c(F)cccc1Cl)NCCc1ccccc1 | -2.75 |
| Cc1ccc(S(=O)(=O)N(C)c2ccc(OC(=O)CN3C(=O)NC4(CCCC4)C3=O)cc2)cc1 | -14.4 |
| COc1ccc(OCC(=O)NNc2nc3ccccc3s2)cc1 | 2.7 |
| O=[N+]([O-])c1cc(-c2cnc3ccccc3n2)ccc1Oc1ccc(F)cc1 | 3.18 |
| Nc1nc(NCc2ccco2)nc(Nc2ccc(F)cc2)c1[N+](=O)[O-] | 12.7 |
| Cc1cccc(N(CC(=O)N2CCN(C)CC2)S(=O)(=O)c2ccccc2)c1 | 8.59 |
| CCCCN(CC)CCNC(=O)c1cc2c(=O)[nH]c3ccccc3c2s1 | -25.8 |
| O=C(CCCC(=O)N1CCCC1)N1CCCC1 | 17.5 |
| COc1ccccc1C(=O)NNC(=O)c1ccc(Cl)cc1 | 19.4 |
| O=C(NN1C(=O)C2C(C1=O)C1C=CC2C12CC2)c1ccccc1 (centres unmarked) | -39.2 |
| COCCNS(=O)(=O)c1cc(OC)ccc1OC | 23.8 |
| CC(=O)Nc1ccc(S(=O)(=O)NCC(=O)OCC(=O)NC23CC4CC(CC(C4)C2)C3)cc1 | -0.592 |
| CC(=O)c1cccc(-n2nnnc2SCC(=O)N2CCCC2)c1 | 0.903 |
| O=C(Nc1nc(-c2ccccc2)cs1)c1ccc(=O)[nH]c1 | 10.2 |
| Cc1cc(Nc2ncc(Cl)cc2Cl)n[nH]1 | 14.4 |
| O=C(COC(=O)c1ccco1)Nc1nc2ccccc2s1 | 9.98 |

| Compound | hERG current change (%, negative = inhibition) at 10uM [%] |
| --- | --- |
| O=C(Cn1cnc2cc([N+](=O)[O-])ccc2c1=O)Nc1ccc(Br)cc1 | 6.78 |
| COC(=O)CSc1ccc(-c2nc3ccc(C)cc3[nH]2)cn1 | -5.01 |
| Cn1c(CSCc2ccc(F)cc2)nnc1SCC(=O)N1CCN(c2ccccc2)CC1 | -70.7 |
| CC(=O)Oc1ccc(Cl)cc1/C=C/c1ccc2ccccc2n1 | 8.35 |
| COc1cccc(/C=N/Nc2nc(Nc3ccccc3)nc(-n3nc(C)cc3C)n2)c1O | 15.4 |
| CC1CCN(CC(=O)Nc2nn(-c3ccccc3)nc2C(N)=O)CC1 | 11.1 |
| CCN(Cc1nc(-c2cccc(Cl)c2)no1)CC1CCCO1 (centres unmarked) | 1.7 |
| Cc1nn(-c2cc(Cl)ccc2Cl)c(C)c1C(=O)O | 13.2 |
| O=C(c1cccnc1)N1CCN(c2ccc(Cl)cc2)CC1 | -22.1 |
| Cc1c(C=C2C(=O)N(C)C(=S)N(C)C2=O)c2ccccc2n1CC(=O)NCC1CCCO1 (centres unmarked) | 4.95 |
| CC(=O)c1cccc(NC(=O)CCc2nnc3ccc(N4CCOCC4)nn23)c1 | 21.2 |
| CC(C)(C)c1nnc2sc(SC/C(O)=C(\C#N)c3nc4ccccc4[nH]3)nn2c1=O | -1.59 |
| CCOc1cc(/C=N/NC(=O)c2ccncc2)ccc1OS(C)(=O)=O | -3.33 |
| O=c1ccc(-c2ccc(S(=O)(=O)Nc3ccc(F)cc3)o2)n[nH]1 | -0.825 |
| Cc1ccc(-c2noc(CSc3ccccc3)n2)cc1 | 10.2 |
| Cl.c1coc(CN(Cc2ccco2)c2ncnc3c2oc2ccccc23)c1 | -26.6 |
| CCOC(=O)c1c(NC(=O)CSc2nc3c(c(=O)n(C)c(=O)n3C)n2C(C)C)sc(C)c1C | -0.527 |
| O=C(Cn1c(=O)oc2ccccc21)Nc1ccc(Br)cc1 | 10.7 |
| O=C(Nc1ccc(Cl)cc1C(F)(F)F)C(Sc1cccc[n+]1[O-])c1ccccc1 (centres unmarked) | -81.3 |
| Cc1ccc(C2=Nc3ccc(Br)cc3C(c3ccncc3)=NN2)cc1 | -19.8 |
| COc1cc2c(=O)n(Cc3ccco3)c(=O)n(CC(=O)c3cccc(Br)c3)c2cc1OC | 3.03 |
| O=C(Nc1ccc(Cl)c(Cl)c1)OCCNC(=O)c1cccc(Cl)c1 | 7.78 |
